Measurements from the supplement of paper PMC10126150.
Values marked as one replicate rest on one cluster of the flow cell; about a third of the high ones do not repeat.

tested on: ATP; experiment: switch fluorescence ratio, 500 uM ATP over buffer (Cy3 cluster intensity, sum of 5 cycles each) (fold (ratio)); higher = stronger signal-on switching upon ATP binding; sequences stand for … in TCGTCGGCAGCGTCAGATGTGTATAAGAGACAGTTTTTTTTTTTTTTTTTTTTTTTTT…TC; conditions: aptamer strand: ATP DNA aptamer (quencher-CACCTGGGGGAGTATTGCGGAGGAAGG + anchor), 100 nM annealed; ATP concentration: 500 uM; one replicate
Summary of the method: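 Clusters carrying Cy3-labelled switching strands on a modified Illumina MiSeq flow-cell were annealed to 100 nM quencher-labelled ATP aptamer and imaged in selection buffer. They were imaged again after 15 min with 500 uM ATP at 22 °C, over five buffer/ATP cycles with NaOH stripping and re-annealing in between. For each cluster, the fluorescence ratio is the summed Cy3 intensity of the target cycles divided by that of the buffer cycles, averaged per switch-domain sequence. Clusters outside 100-1000 RFU were left out.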
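Further: ATP exposure 15 min at 22 °C before imaging.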

| Sequence | switch fluorescence ratio |
| --- | --- |
| TGCTATCGTT | 0.988 |
| GCTAGACTTC | 1.06 |
| CTGTAAATT | 0.984 |
| CAATACGTGG | 1.07 |
| TCGCATCGTT | 0.976 |
| GGATACGGAC | 1.46 |
| TAAGTGGGCG | 1.12 |
| TTACCGGTTT | 1.03 |
| GGCTCTCCAG | 0.967 |
| CCTTTAAGGA | 0.989 |
| TGATCGGGTC | 1.05 |
| GGTACAACGT | 1.03 |
| GCGGGTTCTG | 0.978 |
| TTGGTGCAAC | 1.01 |
| TCTCCGTTTG | 2.04 |
| TATTATCGTT | 0.992 |
| AAGAACAAGC | 1.02 |
| ATAACCTATG | 0.991 |
| AGACAAGAAT | 1.56 |
| ACGGTTCGGT | 0.999 |
| TTGAAGAGC | 1.1 |
| GTGAGGAAGA | 1.03 |
| CGCGGACCTG | 0.946 |
| CGCCACAAGG | 1.23 |
| AGGCCGAATG | 0.941 |

| Sequence | switch fluorescence ratio |
| --- | --- |
| CCCGGTTTAC | 1.65 |
| ACGTCGTACC | 1.09 |
| AATAGCATCT | 1 |
| TCTTTGAGG | 0.995 |
| AGACGATTTA | 1.02 |
| ACCACGAGGT | 1.05 |
| TGGCACATTG | 1.02 |
| TCTATGGTCA | 0.983 |
| ATCGAACAC | 0.99 |
| GGAGCATTCC | 1.76 |
| AGAGCAAGGG | 1.09 |
| TGCTATGAAT | 0.998 |
| GGTGCCGGGT | 1.08 |
| CCGCTGTGTT | 1.41 |
| CGTACTACTA | 1.11 |
| CGCCCTCGAA | 0.984 |
| CGGGCTAGC | 1.03 |
| ATCCGGCTTA | 1.04 |
| TATCCTGGAG | 1.04 |
| CTCGATGGAC | 1.07 |
| TAAAGAGAGT | 1.08 |
| GGGGACGGAA | 1.12 |
| AACCTTCCGG | 2.35 |
| CATGAGTGGA | 1.04 |
| ATCGTGTTGG | 0.967 |

| Sequence | switch fluorescence ratio |
| --- | --- |
| CGCGAGTTTT | 1.02 |
| TTTGCGTCAG | 0.995 |
| AACCTAGATC | 1.01 |
| TCCCAACGCC | 1.11 |
| AGCGTATTTC | 1.01 |
| ACCTTATCGG | 0.966 |
| TAGGGCCACT | 1.03 |
| GTGAAAAGGT | 1.04 |
| GGACATCAAG | 1.03 |
| TCATAAGAGT | 0.991 |
| TCGCAGAAGG | 1.02 |
| CCATTGCATC | 2.08 |
| TGAAGCAAGG | 2.33 |
| ATTATAAAGA | 1.03 |
| CGTGGAGGCA | 0.971 |
| TCTGGCCCAT | 1.02 |
| GTTGGACGGG | 1.02 |
| ACCTAAAAGA | 1.03 |
| TTAACGTCTG | 0.975 |
| AAATGTATCG | 0.983 |
| GTCGCACGGT | 0.978 |
| GCACGGGCGA | 0.998 |
| GTCGCATATG | 1.08 |
| CCTGGTTAAT | 0.993 |
| CTGATGATGC | 1.29 |

| Sequence | switch fluorescence ratio |
| --- | --- |
| AGTAAGACTA | 1.02 |
| ACAGGGATAT | 0.978 |
| TCTATTAGGG | 0.949 |
| TGAGAGTTGG | 1.01 |
| CGATTATAAT | 0.975 |
| GTTGCATTGA | 0.982 |
| AAGATTAAGG | 0.911 |
| GCCAGACGCC | 1.1 |
| AGACATGCGG | 1 |
| TGGCCGGACG | 0.971 |
| CATAAAATTT | 1.01 |
| GATCGGCTGT | 0.969 |
| AGACCTATGC | 1.04 |
| CAACAGCTGT | 0.988 |
| CGCAGTGTGG | 0.982 |
| ATCAGTTCTT | 1.01 |
| GTAATGCATT | 0.977 |
| TTTGAGAGAG | 0.974 |
| CCTTGCCCCG | 1.06 |
| GTTGCAAGGG | 1.01 |
| AGCTCCGATG | 1.12 |
| GCCGGGGGC | 1.07 |
| ATATAATAAG | 1.02 |
| TGGGATGAA | 1.04 |
| GGGCTATTTC | 1.43 |

| Sequence | switch fluorescence ratio |
| --- | --- |
| TCAAGATTCA | 0.975 |
| TCCGCATCTT | 4.67 |
| TGCGCGAAGA | 1.04 |
| CTGTATTAAG | 1.03 |
| GCGCACTAAC | 3.37 |
| CCTTGACGTG | 0.989 |
| TGTCCTTGTT | 0.969 |
| ATGAAATATG | 1.06 |
| AATTTGGACA | 1.03 |
| GGTACGTTAG | 1.01 |
| TGAAATCTGG | 1 |
| GACATTACAA | 1.2 |
| AGTATGCGTA | 0.999 |
| CCGCCATTTG | 1.81 |
| TAATATCAGT | 0.991 |
| TATTTTCGAT | 1.09 |
| ATGTTGAGAC | 1.01 |
| CCATGCGTAT | 1.04 |
| ATCGCGCACT | 1.09 |
| CTTGTTATG | 0.975 |
| TTAAGTTGGA | 0.971 |
| CTTGTGTAAG | 1.02 |
| AAATCTTCTA | 1.04 |
| CGATTGGTT | 0.921 |
| GGTTAATGAC | 0.998 |

| Sequence | switch fluorescence ratio |
| --- | --- |
| CACAAAACTA | 1.13 |
| TGAGGGCATG | 0.924 |
| TTAAACGCTC | 1.11 |
| TTCTCATGAC | 1.06 |
| CGAGGTGTCT | 0.987 |
| CGAAGCGTGG | 1.02 |
| CGTCGAACAC | 1.1 |
| TTGCGATGGC | 1.01 |
| CTTACCAGAT | 1.02 |
| GCTTTAGTTA | 0.999 |
| TTATGGGTTA | 1.02 |
| AGTAGTAGGT | 0.995 |
| CTAAAGCAAC | 5.3 |
| ACAGTCGTGG | 1.03 |
| ATGGTGCGCA | 0.892 |
| ATTCTGGTAT | 0.997 |
| TCTACACTTA | 1.04 |
| ACCGTCGCGA | 1.35 |
| AAACTACGAG | 0.992 |
| AACAGAGCCT | 1.08 |
| ACGGGACTCT | 1.26 |
| AAACACAATG | 1.04 |
| ACGCAATTGG | 3.35 |
| CTTACGGTTC | 1.03 |
| ATAAAGTATT | 1.01 |

| Sequence | switch fluorescence ratio |
| --- | --- |
| ATCTGTGATC | 1.04 |
| AATGCACACT | 1.01 |
| CCATGTACAC | 1.1 |
| CCAAGTACGT | 1.33 |
| ATTGTTGATA | 1.02 |
| GACGGCGTAT | 1.03 |
| TGTGTATGTT | 1.03 |
| TAACGGCAAT | 1.86 |
| TATTTGTCGT | 0.938 |
| GTGGGAGATT | 1 |
| AAAAGCTAAG | 1.03 |
| AACGATTATG | 1.04 |
| CGTGCGTATC | 1.06 |
| GCTTATAGGG | 1.04 |
| TGATGTTTCA | 0.982 |
| TGACATCTGA | 0.984 |
| TTAGGCGCAA | 3.63 |
| TTCTCTATAA | 0.998 |
| CGGACAGTCC | 1.02 |
| TATAGCAGTA | 1.06 |
| TATGGCATAA | 0.995 |
| CATGAAGCTA | 1.1 |
| GAGAGATGCG | 1.11 |
| TTAAGAAGTA | 0.968 |
| GCACCGAGTA | 0.977 |

| Sequence | switch fluorescence ratio |
| --- | --- |
| AGGGATACTA | 1.04 |
| TGAGGTCTCA | 0.992 |
| CGGACAATAG | 1.21 |
| TGCTGTCACG | 0.981 |
| TATTGCAAGA | 0.999 |
| ATTTTGTCC | 0.972 |
| ATCTGGTACA | 1.06 |
| CGGTCTGTAA | 1.04 |
| AGTGACAAGG | 1.02 |
| TATGAACGTA | 1.02 |
| TTAGATCGTG | 1.04 |
| AAGGCATGT | 0.996 |
| GGACCATATG | 1.01 |
| GAACGTCCC | 1.08 |
| ATTGTAACTA | 1.04 |
| TTACTTATGC | 1.02 |
| TCTTTCCCCG | 1.16 |
| CCGTAAGTCC | 2.16 |
| GTTTGCCATC | 1.04 |
| CAAGGTTCC | 1.08 |
| CTAAGTGAT | 1.01 |
| CTCTGGCG | 0.994 |
| AGGCCACGCT | 1.04 |
| AGTTCTCTGC | 1.01 |
| TCTCTAATAT | 1.04 |
